Data on 88 compounds can be found in PMC4336329 (PLoS ONE, 2015).

Screen size: about 310,000 compounds; about 2,200 (0.71%) showed an effect of 50% or more. Effects have a minus sign here. Some of the results follow. Where a SMILES comes first, the peptide text is derived from it. The star is where a group is joined. Cbz = O=C(OCc1ccccc1)*; OtBu = CC(C)(C)O*; tBu = CC(C)(C)*

The target of this test is human ether-à-go-go-related gene (hERG) potassium channel (human, UniProt Q12809). Briefly: primary screen, population patch clamp on CHO cells stably expressing hERG.
Chain of human ether-à-go-go-related gene (hERG) potassium channel (Q12809 whole entry, looked up): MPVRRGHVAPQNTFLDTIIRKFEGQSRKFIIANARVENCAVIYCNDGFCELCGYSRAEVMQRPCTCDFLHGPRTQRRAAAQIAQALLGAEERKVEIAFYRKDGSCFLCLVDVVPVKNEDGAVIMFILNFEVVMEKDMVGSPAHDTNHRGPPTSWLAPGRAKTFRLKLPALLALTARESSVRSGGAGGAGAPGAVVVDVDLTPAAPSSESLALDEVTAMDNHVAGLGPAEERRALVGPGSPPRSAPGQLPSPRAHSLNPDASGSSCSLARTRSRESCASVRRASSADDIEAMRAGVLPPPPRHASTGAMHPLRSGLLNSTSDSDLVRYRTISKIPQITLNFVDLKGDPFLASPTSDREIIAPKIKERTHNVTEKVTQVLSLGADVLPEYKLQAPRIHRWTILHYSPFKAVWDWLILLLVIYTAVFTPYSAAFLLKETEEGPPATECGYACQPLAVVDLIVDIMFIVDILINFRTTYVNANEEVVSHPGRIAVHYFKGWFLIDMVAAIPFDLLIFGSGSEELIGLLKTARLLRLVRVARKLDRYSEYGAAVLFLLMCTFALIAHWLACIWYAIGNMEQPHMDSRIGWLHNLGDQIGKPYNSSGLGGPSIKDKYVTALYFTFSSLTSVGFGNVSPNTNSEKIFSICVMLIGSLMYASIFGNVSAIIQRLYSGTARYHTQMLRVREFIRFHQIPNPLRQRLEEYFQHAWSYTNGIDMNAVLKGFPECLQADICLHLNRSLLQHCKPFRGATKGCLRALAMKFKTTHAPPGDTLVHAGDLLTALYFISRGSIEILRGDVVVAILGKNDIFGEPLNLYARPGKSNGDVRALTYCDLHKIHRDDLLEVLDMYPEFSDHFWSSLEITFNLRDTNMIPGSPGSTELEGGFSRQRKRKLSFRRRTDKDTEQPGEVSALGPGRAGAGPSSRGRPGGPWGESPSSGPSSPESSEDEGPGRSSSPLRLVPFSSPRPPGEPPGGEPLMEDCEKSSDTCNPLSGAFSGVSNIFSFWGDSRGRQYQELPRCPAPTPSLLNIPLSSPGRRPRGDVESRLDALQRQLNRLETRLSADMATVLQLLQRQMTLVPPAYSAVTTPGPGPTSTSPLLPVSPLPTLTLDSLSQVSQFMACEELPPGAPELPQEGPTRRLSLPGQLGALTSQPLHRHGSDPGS
Turning to `COc1ccc(C2c3c(-c4ccccc4)n[nH]c3C(=O)N2c2ccc(C(=O)O)cc2)cc1` (stereo not shown), the “hERG current change (%, negative = inhibition) at 1uM” value was 7.07%.
On to `C=CC(C)N1C(=O)S/C(=C\c2ccc(N3CCOCC3)cc2C)C1=O` (stereo not shown), for which the “hERG current change (%, negative = inhibition) at 1uM” value was found to be 7.33%.
The same measure for `Cc1cccnc1Nc1nc(-c2ccccc2)cs1`: 11.1%.
The value for `O=C(CSc1nc2scc(-c3ccccc3)c2c(=O)[nH]1)Nc1ccccc1` was 15.9%.
On to `CC1=Nc2cc(C(=O)NCCCN3CCN(C)CC3)ccc2Sc2ccc(C)cc21`, for which the “hERG current change (%, negative = inhibition) at 1uM” value is recorded as 6.06%.
Turning to `CCOc1ccc(CCNS(=O)(=O)c2ccc(-c3ccc(=O)[nH]n3)o2)cc1OCC`, the “hERG current change (%, negative = inhibition) at 1uM” value was -2.54%.
For the compound `COc1cc(OC)cc(C(=O)Nc2ncc3c(n2)CC(C)(C)CC3=O)c1`, the “hERG current change (%, negative = inhibition) at 1uM” value came to 3.29%.
Take `Cc1ccc(NCCCCO)cc1C`: the “hERG current change (%, negative = inhibition) at 1uM” value was 12.9%.
With `CC(=O)c1cc(CC(=O)N2CCc3c([nH]c4ccccc34)C2c2ccccn2)cs1` (stereo not shown), the “hERG current change (%, negative = inhibition) at 1uM” value was 11%.
The same measure for `CCNc1ccc(S(=O)(=O)N2CCCCC2)cn1`: 12.7%; for `CC(Oc1ccc2c3c(c(=O)oc2c1)CCCC3)C(=O)NCC(O)c1ccccc1` (stereo not shown): 15%; for `O=C(C1=C[C@H](c2ccc3c(c2)OCO3)C[C@H](OCCCCO)O1)N1CCOCC1`: 9.42%.
With `NS(=O)(=O)c1ccc(NC(=O)c2ccc(Cl)c(S(=O)(=O)NCc3ccco3)c2)cc1`, the “hERG current change (%, negative = inhibition) at 1uM” value came to 13.3%.
On to `COc1cccc(-c2nc(-c3ccc(NC(=O)c4cccnc4)cc3)no2)c1`, for which the “hERG current change (%, negative = inhibition) at 1uM” value stood at 4.64%.
Take `O=S(=O)(c1ccccc1F)N1CCN(Cc2cc3c(cc2O)OCO3)CC1`: the “hERG current change (%, negative = inhibition) at 1uM” value is given as -10.9%.
As for `CN(C)S(=O)(=O)c1cc(NC(=O)c2cc(=O)[nH]c3ccccc23)ccc1Cl`, the “hERG current change (%, negative = inhibition) at 1uM” value turned out to be 7.32%.
The value for `COCCNC(=O)CN(c1cc(Cl)ccc1OC)S(=O)(=O)c1ccc(C)c([N+](=O)[O-])c1` was 17%; that for `CCC(=O)/C=C1/Sc2ccc(OC)cc2N1CCO` was 14.6%.
Regarding `Cc1cc(C)c(S(=O)(=O)Nc2nnc(C(C)C)s2)c(C)c1`, the “hERG current change (%, negative = inhibition) at 1uM” value came out at 16%.
With `Cc1ccc(C(c2nnnn2C(C)(C)C)N(Cc2ccco2)Cc2cccs2)cc1` (stereo not shown), the “hERG current change (%, negative = inhibition) at 1uM” value was found to be 6.63%.
With `CC1CC2=C(NC(=S)NC2c2ccc(F)cc2)/C(=C/c2ccc(F)cc2)C1` (stereo not shown), the “hERG current change (%, negative = inhibition) at 1uM” value turned out to be 2.93%.
For the compound `CCOC(=O)c1c(N)n(Cc2ccco2)c2nc3ccccc3nc12`, the “hERG current change (%, negative = inhibition) at 1uM” value is recorded as -38.7%.
On to `C=C(C)CSc1cc(C)c(C#N)c2nc3ccccc3n12`, for which the “hERG current change (%, negative = inhibition) at 1uM” value stood at 0.84%.
In the case of `COC(=O)c1c(NC(=O)COC(=O)CCNS(=O)(=O)c2ccccc2)sc(C)c1C`, the “hERG current change (%, negative = inhibition) at 1uM” value stood at 11.1%.
The value for `Nc1nc(SCC(=O)c2cccc([N+](=O)[O-])c2)n[nH]1` was 5.93%.
Take `CC(NC(=O)OCc1ccccc1)C(=O)NCC(=O)NC(Cc1ccc(OC(C)(C)C)cc1)C(=O)OC(C)(C)C` (stereo not drawn) (Cbz-Ala-Gly-Tyr(tBu)-OtBu; configuration not given here): the “hERG current change (%, negative = inhibition) at 1uM” value is 1.74%.
The value for `O=C(CSc1nnc(CNC(=O)c2c(F)cccc2F)o1)NCc1ccccc1` was 8.94%; that for `CC12CCC(C(=O)N3CCCCCC3)(OC1=O)C2(C)C` (stereo not shown) was 14.4%; that for `Cc1cccc(C)c1NC(=O)CNC(=O)CCNC(=O)c1ccco1` was 1.97%.
Regarding `O=C(Cn1nnc2ccccc21)C1CC1`, the “hERG current change (%, negative = inhibition) at 1uM” value is 1.07%.
The value for `Cc1cc[n+](Cc2ccc([N+](=O)[O-])cc2)cc1.[Br-]` was 5.5%; that for `Cc1cnc(C(=O)OCC(=O)c2ccc(F)cc2)cn1` was 13%; that for `CCOC(=O)CCC(NC(=O)c1ccc(NCN2C(=O)CCC2=O)cc1)C(=O)OCC` (stereo not shown) was 7.89%.
As for `COc1cc(/C=C/c2ccc3cccc(O)c3n2)cc(OC)c1OC`, the “hERG current change (%, negative = inhibition) at 1uM” value is recorded as 10.8%.
`COC(=O)c1ccccc1NC(=O)Nc1nnc(N2CCCCC2C)s1` (stereo not shown): the “hERG current change (%, negative = inhibition) at 1uM” value is listed as 10%.
As to `Cc1ccc(N(Cc2ccccc2)C(=O)c2ccc(F)c(S(=O)(=O)N3CCOCC3)c2)cc1`, the “hERG current change (%, negative = inhibition) at 1uM” value is -30.5%.
The value for `Nc1cc(=O)nc(SCC(=O)N(C2CCCCC2)C2CCCCC2)n1-c1ccccc1` was 16.3%; that for `Cc1ccc(C)c(OCc2cc(C(=O)NC3CCN(Cc4ccccc4)CC3)no2)c1` was 13.2%; that for `COCCOC(=O)C1=C(C)NC2(O)c3ccccc3C(=O)C12O` (stereo not shown) was 12.2%.
On to `O=C(c1c(F)cccc1Cl)N1CCN(c2ccccn2)CC1`, for which the “hERG current change (%, negative = inhibition) at 1uM” value was 10.5%.
For the compound `O=C(CCCCCN1C(=O)[C@@H]2Cc3ccccc3CN2C1=O)NCCc1ccccc1`, the “hERG current change (%, negative = inhibition) at 1uM” value was -1.5%.
The same measure for `O=C(NCc1ccncc1)c1cc(C(=O)C2CC2)c[nH]1`: 12.5%; for `N#C/C(=C\c1cccnc1)c1ccccc1[N+](=O)[O-]`: 8.35%.
With `COc1ccc(C2(O)CCN(C(=O)Cc3cccnc3)CC2)cc1`, the “hERG current change (%, negative = inhibition) at 1uM” value was 7.45%.
On to `COc1ccc(-c2csc(NC(=O)COc3ccc(N(C)S(=O)(=O)c4ccc(C)cc4)cc3)n2)cc1`, for which the “hERG current change (%, negative = inhibition) at 1uM” value worked out at 5.15%.
The same measure for `Cc1cc2nnc(SCC(=O)NCc3ccco3)n2c2ccccc12`: 11.1%.
`COc1ccc(NC2=CC(=O)N(C)C2=O)cc1`: the “hERG current change (%, negative = inhibition) at 1uM” value amounted to 16.3%.
Consider `O=C(/C=C/c1ccccc1)NCCC1=CCCCC1`, for which the “hERG current change (%, negative = inhibition) at 1uM” value is given as 9.38%.
Take `Cc1ccc(CNC(=O)c2ccc(NC(=O)CCS(=O)(=O)c3cccs3)cc2)cc1`: the “hERG current change (%, negative = inhibition) at 1uM” value is reported as 10.5%.
The value for `Cl.O=C(CN1CCCC1)NCC1(c2ccccc2)CCOCC1` was 11.3%.
Regarding `CCc1ccc(C(=O)OCC(=O)c2c(N)n(CC(C)C)c(=O)n(C)c2=O)cc1`, the “hERG current change (%, negative = inhibition) at 1uM” value is on record as 10%.
Take `COc1ccc(-c2cc(C(F)(F)F)nc(N3CCN(C)CC3)n2)cc1`: the “hERG current change (%, negative = inhibition) at 1uM” value came to 7.78%.
Regarding `O=C(c1cn(-c2ccccc2)nc1-c1ccc(Br)cc1)N1CCOCC1`, the “hERG current change (%, negative = inhibition) at 1uM” value is 8.27%.
As to `O=C(COc1ccccc1)N1CCN(C(=O)c2cccs2)CC1`, the “hERG current change (%, negative = inhibition) at 1uM” value was found to be 0.419%.
As to `CSc1cc(-c2ccco2)oc1C(=O)c1ccco1`, the “hERG current change (%, negative = inhibition) at 1uM” value is 8.55%.
As to `Cc1ccc(NC(=O)CCNS(=O)(=O)c2cccc3nonc23)cc1Cl`, the “hERG current change (%, negative = inhibition) at 1uM” value was found to be 14.8%.
Regarding `O=C(N/N=C/C=C/c1ccccc1)c1cc(C2CC2)[nH]n1`, the “hERG current change (%, negative = inhibition) at 1uM” value came out at 0.149%.
With `Cc1cccc2[nH]c(CN(C)C(=O)C3CCC(=O)N(C4CC4)C3)nc12` (stereo not shown), the “hERG current change (%, negative = inhibition) at 1uM” value is reported as 17.9%.
Take `CC1CC(C)CN(S(=O)(=O)c2ccc(C(=O)N3CCCC3)cc2)C1` (stereo not shown): the “hERG current change (%, negative = inhibition) at 1uM” value was -9.59%.
In the case of `COc1ccc(/C=C(/C(=O)Nc2ccccc2C(=O)NC(C)C)c2ccccc2)cc1`, the “hERG current change (%, negative = inhibition) at 1uM” value is given as 9.53%.
For the compound `S=C(NCc1ccco1)N/N=C/c1cccnc1`, the “hERG current change (%, negative = inhibition) at 1uM” value amounted to 1.39%.
The same measure for `NC1=NC2(CCCCC2)N=C(Nc2ccc(F)cc2F)N1`: 5.43%.
Consider `O=C(O)C(=O)O.O=S(=O)(c1ccccc1C(F)(F)F)N1CCN(CC(O)COc2ccccc2F)CC1` (stereo not shown), for which the “hERG current change (%, negative = inhibition) at 1uM” value is on record as 18.3%.
On to `Cc1ccccc1CN1CCCNC1=O`, for which the “hERG current change (%, negative = inhibition) at 1uM” value was determined as 3.46%.
Regarding `COc1cc(/C=C2/C(=N)N3C=CSC3=NC2=O)ccc1OCCOc1ccc(NC(C)=O)cc1`, the “hERG current change (%, negative = inhibition) at 1uM” value amounted to 12%.
The value for `CC(C)Oc1ccccc1/C=N/Nc1ccccc1[N+](=O)[O-]` was 10.4%; that for `Cc1[nH]c2ccccc2c(=O)c1CN(C)Cc1ccccc1` was -7.79%; that for `CCCOc1ccc(C(=O)Nc2ccc3c(c2)OCO3)cc1` was 11.4%.
For the compound `c1ccc2[nH]c(NC3=NCCC3)nc2c1`, the “hERG current change (%, negative = inhibition) at 1uM” value was found to be 5.16%.
On to `Cc1nc2c3ccccc3nc(SCC(=O)c3ccc(Cl)cc3)n2n1`, for which the “hERG current change (%, negative = inhibition) at 1uM” value is given as 8.88%.
For `Cc1cc(C)n(C(=O)CNC(=O)c2ccc(C(C)(C)C)cc2)n1`, the “hERG current change (%, negative = inhibition) at 1uM” value turned out to be 10.9%.
The value for `COc1ccc(C(=O)Nc2ccc(NC(C)=O)cc2)cc1S(=O)(=O)N(C)Cc1ccccc1` was 15.4%; that for `CC1CCc2c(sc3ncnc(NCCN4CCOCC4)c23)C1` (stereo not shown) was -13.1%; that for `O=C(CCNC(=O)c1ccccc1Cl)Nc1ccc(Br)c(C(F)(F)F)c1` was 16%.
On to `Cc1c(Cl)cccc1S(=O)(=O)Nc1ccnn1C`, for which the “hERG current change (%, negative = inhibition) at 1uM” value is given as 9.21%.
For the compound `COCCn1c(=O)[nH]c2cc(C(=O)Nc3cc(C)cc(C)c3)ccc2c1=O`, the “hERG current change (%, negative = inhibition) at 1uM” value worked out at 14.8%.
The same measure for `Cc1ccnc2c(N3C(=O)C4C5c6ccccc6C(c6ccccc65)C4C3=O)cccc12` (stereo not shown): 1.54%.
The same measure for `O=c1c(Cc2ccc(F)cc2)c(O)ccn1CC1CCCO1` (stereo not shown): 14.2%.
Take `COc1ccc(NC(=O)Cc2cccc3ccccc23)cc1`: the “hERG current change (%, negative = inhibition) at 1uM” value is 8.5%.
`CSc1oc(-c2ccco2)nc1S(=O)(=O)c1ccc(Br)cc1`: the “hERG current change (%, negative = inhibition) at 1uM” value was found to be 7.95%.
On to `Cl.N[C@@H](Cc1c[nH]c2ccccc12)c1nnc(SCc2ccccc2F)o1`, for which the “hERG current change (%, negative = inhibition) at 1uM” value amounted to 5.36%.
In the case of `O=C(Nc1ccc(F)c(Cl)c1)N1CCCCCC1`, the “hERG current change (%, negative = inhibition) at 1uM” value turned out to be 12.1%.
Consider `Cc1onc(-c2ccccc2Cl)c1-c1nc(-c2ccncc2)no1`, for which the “hERG current change (%, negative = inhibition) at 1uM” value came to 12.6%.
Take `O=S(=O)(c1ccccc1)c1nc(-c2ccco2)oc1NCCN1CCOCC1`: the “hERG current change (%, negative = inhibition) at 1uM” value is -13.2%.
Consider `CN(C)C(=O)c1cn(-c2ccccc2)c(=O)c2ccccc12`, for which the “hERG current change (%, negative = inhibition) at 1uM” value amounted to 17.3%.
On to `CCC(NC(=O)c1ccccc1NC(=O)c1ccc(C)cc1)C(=O)O` (stereo not shown), for which the “hERG current change (%, negative = inhibition) at 1uM” value amounted to 2.01%.
Regarding `CCN(CC)S(=O)(=O)c1cc(NC(=O)CCCOc2ccc(C(C)=O)cc2)ccc1C`, the “hERG current change (%, negative = inhibition) at 1uM” value is 6.54%.
As for `O=C(O)c1cccc(S(=O)(=O)N(Cc2ccccc2)c2ccccc2Cl)c1`, the “hERG current change (%, negative = inhibition) at 1uM” value amounted to 12.5%.
